Source: PubChem BioAssay (NCI)
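Test compounds were applied to cells in 96-well plates for 48 hours at 5 doses. TGI denotes the concentration required for complete inhibition of growth.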 A number of entries come with more than one value. The other results are left out here. There may be further records. Records of one sample usually come from different ranges of test concentrations, not given here; a value can be the end of its range.

Test system: MDA-MB-468 breast
Assay: growth of human tumour cells (NCI), 48 h

CC(=O)O[C@H]1C(=O)[C@@]2(C)[C@H]([C@H](OC(=O)c3ccccc3)[C@]3([O-])C[C@H](OC(=O)[C@H]([O-])[C@@H](NC(=O)c4ccccc4)c4ccccc4)C(C)=C1C3(C)C)[C@]1(OC(C)=O)CO[C@@H]1C[C@@H]2[O-].[Fe+3]
TGI: 178 nM and 12.5 µM
